# Data taken from PubChem BioAssay AID924 (National Center for Advancing Translational Sciences (NCATS), 2007).
# The whole screen tested about 130,000 compounds, of which about 1,200 (0.92%) were called active. Inconclusive results, whose numbers are uncertain, are shown with a selection of clear calls. Calls come from the whole dose curve; as a rule, active = well fitted cell-killing curve with a large enough effect; inconclusive = small, poorly fitted or top-dose-only effect; inactive = no such curve, though single readings can be large or run the other way. Potencies of inconclusive entries are doubtful fits and often do not repeat. Where a structure was tested more than once in an assay, its records may differ in their call.
# Assay: qHTS Screen for Compounds that Selectively Target Cancer Cells with p53 Mutations: Cytotoxicity of p53ts Cells at the Permissive Temperature; note: nearly all actives have a fitted effect of over 55% in size;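 for activity change, negative = cytotoxicity: 0% = DMSO and -100% = full killing by reference compound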
# Settings: H1299-p53A138V at 32C, ATP luminescence viability, 24 h; series mostly up to 46.1 µM; activity change, negative = cytotoxicity: at the top concentration
# Procedure, shortened: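 H1299-p53 A138V cells (temperature-sensitive p53) exposed 24 h to up to 46 uM compound at 32C, where p53 is wild-type in conformation. Viability read as ATP luminescence and normalised to DMSO and 100 uM tamoxifen. AC50 fitted with the Hill equation.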
# Potency is the fitted concentration of half-maximal effect; tags give direction and shape of the fitted curve.
SMILES,Potency,"activity change, negative = cytotoxicity"
Cc1ccc(NC(=O)Nc2ccc3nc(N4CCN(C)CC4)cc(C)c3c2)cc1F,active: 25.1 µM,–
CC(C)c1cc2c(c(O)c1O)[C@]1(C(=O)O)CCCC(C)(C)C1CC2 (some centres undefined),"inconclusive: 20 µM [cytotoxic, single point]",–
NC(=NCCc1ccc(I)cc1)SCCCc1cnc[nH]1,"inconclusive: 12.6 µM [cytotoxic, partial curve]",–
Nc1cccc(N=Cc2c(O)n(Cc3ccc(F)cc3)c(=O)[nH]c2=O)c1,"inconclusive: 0.0251 µM [cytotoxic, full curve, poor fit]",–
CCc1ccccc1Nc1nn2c(=O)c3ccc(C(=O)Nc4cc(C)cc(C)c4)cc3nc2s1,active: 3.16 µM,–
O=C1C=CC(=O)c2c1ccc1c2ccc2ccccc21,active: 10 µM,–
COc1cc(OC)c(/C=C2/C(=O)Nc3ccccc32)c(OC)c1,"inconclusive: 31.6 µM [cytotoxic, single point]",–
Nc1cc(Cl)cc(Cl)c1,"inconclusive: 0.01 µM [cytotoxic, full curve, poor fit]",–
C=CC(C)=O,–,inactive: -15.9% [at 1.84 µM]
CC(C)=CCCC1(C)C=Cc2c(O)c3c(c(CC=C(C)C)c2O1)OC12C(=CC4CC1C(C)(C)OC2(C/C=C(/C)C(=O)O)C4O)C3=O (centres undefined),active: 5.01 µM,–
O=c1[nH]c(=O)n(Cc2ccc(F)cc2)c(O)c1C=NCc1cccnc1,–,inactive: -7.87%
CC(C)Oc1ccc(NC(=O)c2cc3ccccc3o2)cc1,active: 6.31 µM,–
O=P(O)(OP(=O)(O)c1ccccc1)c1ccccc1 (tested in a mixture with another compound),–,inactive: -11.9% [at 9.22 µM]
COc1cc2[nH]c(=O)n(CCCCCC(=O)N3CCN(c4cccc(C(F)(F)F)c4)CC3)c(=O)c2cc1OC,"inconclusive: 31.6 µM [cytotoxic, single point]",–
Cc1c2ccncc2c(C)c2c1[nH]c1ccccc12,active: 12.6 µM,–
CC(=O)OC1CCC23C(=O)OC45CCC(C6=CC(=O)OC6)C4(C)CCC2C5CCC3(O)C1 (centres undefined),"inconclusive: 0.631 µM [cytotoxic, full curve]",–
CC(C)Oc1ccc(C(=O)Nc2ccc3c(c2)CCCN3C(=O)c2cccs2)cc1,"inconclusive: 3.16 µM [cytotoxic, full curve]",–
CC(=O)c1c(C)nc2ccccc2c1N,active: 12.6 µM,–
Nc1c(C(=O)Nc2ccc(F)c(Cl)c2)sc2nc3c(cc12)N1CCC3CC1,"inconclusive: 20 µM [cytotoxic, single point]",–
COc1ccc(Nc2nc(N)nc(CSc3nc4ccccc4s3)n2)cc1,"inconclusive: 25.1 µM [cytotoxic, single point]",–
CCCCC/C=C\C/C=C\C/C=C\C/C=C\CCCC(=O)Nc1ccc(O)cc1,"inconclusive: 31.6 µM [cytotoxic, single point]",–
NC(C(=O)O)[C@@H]1CC(Cl)=NO1 (some centres undefined),"inconclusive: 10 µM [cytotoxic, partial curve]",–
c1ccccc1,"inconclusive: 0.004 µM [cytotoxic, full curve, poor fit]",–

SMILES,Potency,"activity change, negative = cytotoxicity"
Nc1cc(Cl)ccc1Cl,"inconclusive: 0.01 µM [cytotoxic, full curve, poor fit]",–
Cc1ccc(C(=O)Nc2nc3ccccc3n2CCN2CCCC2)cc1,"inconclusive: 15.8 µM [cytotoxic, single point]",–
O=C(Nc1ccc2c(c1)OCCO2)c1cccn(Cc2ccccc2)c1=O,"inconclusive: 14.1 µM [cytotoxic, single point]",–
OCCN1CCN(CCCN2c3ccccc3Sc3ccc(C(F)(F)F)cc32)CC1,"inconclusive: 15.8 µM [cytotoxic, single point]",–
CCCSc1ccc2nc(NC(=O)OC)[nH]c2c1,"inconclusive: 12.6 µM [cytotoxic, single point]",–
COc1c(CC=C(C)C)c2c(c3oc(=O)c(-c4ccc(O)cc4)c(O)c13)C=CC(C)(C)O2,–,inactive: 3.8%
CN(CC(=O)N1CCc2ccccc21)S(=O)(=O)c1cccs1,"inconclusive: 10 µM [cytotoxic, single point]",–
CCOC(=O)Cn1c(=O)oc2cc(S(=O)(=O)NC3CCCc4ccccc43)ccc21 (centres undefined),"inconclusive: 31.6 µM [cytotoxic, single point]",–
O=C(CCC1CCCC1)c1c(O)c2ccccc2oc1=O,"inconclusive: 12.6 µM [cytotoxic, partial curve]",–
CC(C)(c1ccc(OC[C@@H]2CO2)cc1)c1ccc(OC[C@H]2CO2)cc1,active: 12.6 µM,–
COc1ccc(NC(=O)c2ccco2)cc1NC(=O)COc1cc(C)cc(C)c1,"inconclusive: 12.6 µM [cytotoxic, partial curve, poor fit]",–
COc1ccc(-c2cc(=O)c3cc(OCC(=O)OC(C)C)ccc3o2)cc1,active: 3.16 µM,–
Cc1ccc(Cl)cc1NC(=O)NCc1cccn1Cc1ccc(F)cc1,"inconclusive: 20 µM [cytotoxic, single point]",–
CN(C(=O)c1ccco1)C1(c2ccccc2Cl)CCCCC1=O (centres undefined),–,inactive: 1.17%
CC(=O)[O][Hg][c]1ccccc1,active: 1 µM,–
O=c1[nH]c2ccccc2n1C1CCN(CCCC(c2ccc(F)cc2)c2ccc(F)cc2)CC1,active: 25.1 µM,–
Cc1cc2c(C(C)C)c(O)c(O)c(C=O)c2c(O)c1-c1c(C)cc2c(C(C)C)c(O)c(O)c(C=O)c2c1O,active: 20 µM,–
COc1ccc(OC)c(NC(=O)Cn2cc(C(=O)c3ccccc3F)c3ccccc32)c1,"inconclusive: 6.31 µM [cytotoxic, full curve, poor fit]",–
O=C(CSc1ccccc1)N1CCC2(CC1)OCCO2,–,inactive: 0.853%
O=C(O)CN1CCN(CC(=O)O)CC(=O)[O][Hg][O]C(=O)C1,–,inactive: -25.8% [at 9.22 µM]
CCC(=O)OC1CCC2C3CCc4cc(O)ccc4C3CC[C@]12C (some centres undefined),"inconclusive: 31.6 µM [cytotoxic, single point]",–
COC(=O)CSC1=NP(=S)(SCC(=O)OC)N2CCCC2=C1C#N (centres undefined),"inconclusive: 31.6 µM [cytotoxic, single point]",–
CCCC/C=C/[C@@H](NP(=O)(c1ccccc1)c1ccccc1)c1ccccc1OC,"inconclusive: 31.6 µM [cytotoxic, single point]",–

SMILES,Potency,"activity change, negative = cytotoxicity"
O=C1CN(C(=O)CN2CCCCC2)C(c2ccccc2)c2cc(Br)ccc2N1 (centres undefined),"inconclusive: 12.6 µM [cytotoxic, partial curve]",–
O=C(CCCN1CCC2(CC1)C(=O)N(Cc1cccc(F)c1)CN2c1ccccc1)c1ccc(F)cc1,"inconclusive: 25.1 µM [cytotoxic, partial curve]",–
Nc1ccc(-c2ccc(N)cc2)cc1,"inconclusive: 0.0079 µM [cytotoxic, full curve, poor fit]",–
O=C(c1ccccc1Cl)N1CCC(c2nc3ccccc3s2)CC1,"inconclusive: 35.5 µM [cytotoxic, single point]",–
CCOP(=S)(OCC)Oc1cc(C)nc(C(C)C)n1,"inconclusive: 0.005 µM [cytotoxic, full curve, poor fit]",–
CCn1nc(-c2cccs2)nc2c(=O)n(C)c(=O)nc1-2,active: 2 µM,–
CCCCCCOc1ccc(CN2CCN(C)CC2)cc1,"inconclusive: 12.6 µM [cytotoxic, single point]",–
Nc1nc(N)c2nc(CNc3ccc(C(=O)N[C@H](CCC(=O)O)C(=O)O)cc3)cnc2n1,"inconclusive: 0.0501 µM [cytotoxic, full curve]",–
CCOc1ccc(NC(=O)c2cc3c(C)nn(-c4ccccc4)c3s2)cc1,"inconclusive: 31.6 µM [cytotoxic, single point]",–
c1ccc(CCCN2CCN(CCOC(c3ccccc3)c3ccccc3)CC2)cc1,"inconclusive: 6.31 µM [cytotoxic, full curve]",–
O=C(O)[C@H]1[C@H](C(=O)O)[C@H]2CC[C@@H]1O2,–,inactive: 30.7%
O=C(CSc1oc(-c2ccccc2)nc1S(=O)(=O)c1ccc(Cl)cc1)Nc1ccc(F)cc1,"inconclusive: 12.6 µM [cytotoxic, partial curve]",–
CC[n+]1c(-c2ccccc2)c2cc(N)ccc2c2ccc(N)cc21,active: 3.98 µM,–
O=C(O)c1ccc(C(=O)O)cc1,"inconclusive: 0.005 µM [cytotoxic, full curve, poor fit]",–
Cc1cccc(-n2c(/C=C/c3ccccc3O)nc3ccccc3c2=O)c1,"inconclusive: 31.6 µM [cytotoxic, single point]",–
COc1cc2c(cc1O)-c1c(O)c(OC)cc3c1[C@H](C2)N(C)CC3,"inconclusive: 31.6 µM [cytotoxic, partial curve]",–
CC1=C(O)C(=O)[C@H]2O[C@@H]2C1=O,active: 15.8 µM,–
C[N+]1(C)[C@@H]2CC[C@H]1CC(OC(=O)c1c[nH]c3ccccc13)C2 (some centres undefined),"inconclusive: 25.1 µM [cytotoxic, single point]",–
NCCc1c[nH]c2ccc(OC(=O)C(=O)O)cc12,–,inactive: -2.41% [at 9.22 µM]
Cc1cc(O)c2c(c1)C(=O)c1cc(O)cc(O)c1C2=O,–,inactive: 41.9%
CN(C)[C@@H]1C(=O)C(C(N)=O)=C(O)[C@]2(O)C(=O)C3=C(O)c4c(O)cccc4[C@](C)(O)[C@H]3C[C@@H]12,–,inactive: 1.53% [at 9.22 µM]
C=CCn1c(O)c(C(C)=NCc2cc(OC)cc(OC)c2)c(=O)[nH]c1=O,active: 10 µM,–
Cc1oc(-c2ccc(Cl)cc2)nc1CN1CCC(C(=O)NCCCN2CCN(c3cccc(Cl)c3)CC2)CC1,"inconclusive: 25.1 µM [cytotoxic, single point]",–
